# Measured values reported in PubChem BioAssay AID1476 (National Center for Advancing Translational Sciences (NCATS), 2009).
# The campaign covered roughly 200,000 compounds. About 4,500 (2.2%) were called active. The shares of active, inactive and inconclusive entries below differ from those in the screen. Calls come from the whole dose curve; as a rule, active = well fitted inhibition curve with a large enough effect; inconclusive = small, poorly fitted or top-dose-only effect, or effect the other way; inactive = flat fitted curve, though single readings scatter. A potency beside an inconclusive call is a rough fit, not a confirmed value.
# Molecular target: Cruzipain (Trypanosoma cruzi) (UniProt P25779)
# Chain of UniProt P25779 (P25779 whole entry, looked up): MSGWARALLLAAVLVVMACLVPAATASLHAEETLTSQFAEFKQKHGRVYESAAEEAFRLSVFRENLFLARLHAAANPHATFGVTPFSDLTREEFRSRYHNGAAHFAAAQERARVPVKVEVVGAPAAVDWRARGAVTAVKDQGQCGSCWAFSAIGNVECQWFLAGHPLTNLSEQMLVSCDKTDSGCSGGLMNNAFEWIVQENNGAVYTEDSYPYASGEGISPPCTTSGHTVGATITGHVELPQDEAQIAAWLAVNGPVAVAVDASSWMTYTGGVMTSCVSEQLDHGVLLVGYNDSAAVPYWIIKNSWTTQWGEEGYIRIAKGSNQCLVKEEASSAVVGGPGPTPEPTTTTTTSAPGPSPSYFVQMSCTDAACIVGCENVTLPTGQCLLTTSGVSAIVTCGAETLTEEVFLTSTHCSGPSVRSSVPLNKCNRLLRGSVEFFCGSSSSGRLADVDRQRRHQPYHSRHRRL
# Assay: qHTS Assay for Promiscuous and Specific Inhibitors of Cruzain (without detergent); note: nearly all actives have a fitted effect of over 40% in size;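 for max response, negative = inhibition: plate controls were enzyme without inhibitor for no effect and buffer without enzyme for full effect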
# Settings: purified cruzain, Z-FR-AMC fluorescence, no detergent
# Outline: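 Detergent-free condition (0.00005% Triton X-100) in acetate buffer pH 5.5 with DTT. 1.5 nM enzyme and compound were pre-mixed 15 min, then 2 uM Z-FR-AMC substrate added; reaction progress from fluorescence change between first and third reads (60 s).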
# Potency is the fitted concentration of half-maximal effect; tags give direction and shape of the fitted curve.
SMILES,"max response, negative = inhibition",Potency
COc1ccc(NC(=O)CN2C(=O)C3(SCC(=O)N3c3cccc(OC)c3)c3ccccc32)cc1 (centres undefined),inactive: -6.09%,–
CCCC(=O)Nc1ccc(C(=O)/C=C/c2ccc(SC)cc2)cc1,–,"inconclusive: 39.8 µM [inhibitor, single point]"
CCCCCCCCCOC(=O)C(CC(=O)O)N1CCOCC1 (centres undefined),–,"inconclusive: 31.6 µM [activator, single point]"
O=C(CSc1nc2ccsc2c(=O)n1Cc1ccccc1Cl)NCc1ccc(Cl)cc1,inactive: -4.87%,–
CCOc1cc(CNC(=O)c2ccc3nc(CCc4ccccc4)oc3c2)ccc1OC,–,"inconclusive: 31.6 µM [activator, single point]"
COCC(=O)N1c2nc(-c3ccco3)nn2C2(CCCCC2)[C@@H]2CCCC[C@@H]21,inactive: 11.7%,–
CCc1ccc2nc(N3C(=O)C(O)=C(C(=O)c4ccco4)C3c3cccs3)sc2c1 (centres undefined),–,"inconclusive: 39.8 µM [activator, single point]"
Cc1ccc(NC(=O)Cn2nnc(C(=O)NCCc3ccccc3)c2N)cc1Cl,–,"inconclusive: 39.8 µM [inhibitor, single point]"
O=C1N(CCCCN2C(=O)C3(OCCO3)c3ccccc32)c2ccccc2C12OCCO2,–,"inconclusive: 39.8 µM [activator, single point]"
Cc1nc2c(c(=O)n1CCC1=CCCCC1)c1nc3ccccc3nc1n2/N=C/c1ccco1,–,"inconclusive: 39.8 µM [activator, single point]"
Cc1nc2cc(-c3cccc(F)c3)nn2c(C)c1CCC(=O)NC(C)CCc1ccco1 (centres undefined),–,"inconclusive: 39.8 µM [activator, single point]"
CCNC(=O)CC1C(=O)N(c2ccc(F)cc2)C(=O)N1Cc1ccccn1 (centres undefined),inactive: 5.81%,–
COc1cccc(N2CC(NC(=O)C3CC3)CC2=O)c1 (centres undefined),inactive: -2.54%,–
COc1ccc(NC(=O)Cn2c(=O)n(-c3ccc(C)c(C)c3)c(=O)c3c(C)c(C)sc32)cc1,inactive: -4.49%,–
O=C(Cn1cnc2c(cnn2-c2ccccc2)c1=O)NCCc1ccccc1,–,"inconclusive: 25.1 µM [inhibitor, single point]"
COc1ccc(NC(=O)Cc2noc3ccc(C)cc23)cc1Cl,–,active: 25.1 µM
O=S(=O)(Nc1ccc(Cl)cc1)c1cccc(S(=O)(=O)c2ccc(Cl)c(Cl)c2)c1,–,"inconclusive: 39.8 µM [inhibitor, single point]"
CC(C)c1ccc(NC(=O)COC(=O)/C=C/c2cccc([N+](=O)[O-])c2)cc1,inactive: 5.47%,–
O=C(Nc1nnc(COc2ccccc2)s1)C1CCN(S(=O)(=O)c2ccc(Cl)cc2)CC1,inactive: -28.8%,–
CCN(CC)S(=O)(=O)c1ccc2c(c1)c(=O)c(C(=O)NCCCN(C)c1ccccc1)cn2C,–,"inconclusive: 25.1 µM [activator, partial curve]"
Cc1ccc(-c2csc3nnc(SCC(=O)N4CCN(Cc5ccccc5)CC4)n23)cc1,–,active: 20 µM
CC(C)[C@H](NC(=O)c1cccc(S(=O)(=O)N2CCOCC2)c1)C(=O)Nc1nc2ccccc2s1,–,"inconclusive: 12.6 µM [activator, partial curve]"

SMILES,"max response, negative = inhibition",Potency
CCc1c(C)nc2cc(-c3ccc(OC)c(OC)c3)nn2c1N1CCC(C)CC1,–,"inconclusive: 25.1 µM [activator, single point]"
CCOC(=O)c1c(NC(=O)Cn2cnc3scc(-c4ccc(C)cc4)c3c2=O)sc(C)c1C,–,active: 3.98 µM
CNC(=O)c1sccc1S(=O)(=O)Cc1c(Cl)cccc1Cl,inactive: -7.06%,–
O=C(CN1CCN(CCN2C(=O)c3cccc4cccc(c34)C2=O)CC1)c1ccc(Cl)cc1,–,"inconclusive: 39.8 µM [inhibitor, single point]"
CCCCN(C)C(=O)Cn1c(SCC(=O)Nc2ccc(C)c(C)c2)nc2ccccc21,–,"inconclusive: 31.6 µM [activator, single point]"
CCOC(=O)c1ccc(NS(=O)(=O)c2ccc3[nH]c4c(c3c2)CCCCC4)cc1,–,"inconclusive: 31.6 µM [inhibitor, single point]"
CN(C)S(=O)(=O)c1cc(C(=O)NCCCn2ccc3ccccc32)ccc1Cl,–,"inconclusive: 25.1 µM [inhibitor, single point]"
CC(=O)N1CCc2cc(S(=O)(=O)NC(Cc3ccccc3)C(=O)Nc3ccc(Cl)cc3)ccc21 (centres undefined),inactive: -0.122%,–
CCc1nn(CC(=O)N2CCN(c3cccc(C(F)(F)F)c3)CC2)c(=O)c2cccn12,inactive: -8.67%,–
O=C(Nc1nc(-c2ccccn2)cs1)c1ccc(Cl)s1,–,"inconclusive: 39.8 µM [inhibitor, single point]"
COCc1nnc(NC(=O)CC(c2ccccc2)c2ccccc2)s1,–,"inconclusive: 39.8 µM [inhibitor, single point]"
Fc1ccc(F)c(C2=NNC(=Nc3ccccc3F)SC2)c1,–,"inconclusive: 39.8 µM [inhibitor, single point]"
Cc1cccc(C)c1NC(=O)CN1C(=O)c2cccc3cccc1c23,inactive: -19.7%,–
N#Cc1ccc2ccn(CC(=O)NCc3ccccc3)c2c1,–,"inconclusive: 15.8 µM [inhibitor, single point]"
Cc1oc2c(c(C)cc3oc(=O)c(CC(=O)NCc4ccc(F)cc4)c(C)c32)c1C,inactive: -2.52%,–
COc1ccc(C)cc1NC(=O)CSc1nc(=O)n(Cc2ccccn2)c2c1CCC2,–,"inconclusive: 31.6 µM [activator, single point]"
COCCCNc1nc2c(c(=O)[nH]c(=O)n2C)n1CCCc1ccccc1,inactive: -7.21%,–
CCN1C(=O)C(Cc2nc3ccccc3c(=O)n2-c2ccccc2)c2cc(Br)ccc21 (centres undefined),–,"inconclusive: 31.6 µM [activator, single point]"
CCC(=O)Nc1ccc(NC(=S)NC(=O)c2cc3ccccc3o2)cc1,inactive: -26.6%,–
COc1ccccc1-c1nnc(C2CCN(C(=O)c3ccc(Cl)cc3)CC2)o1,inactive: -7.8%,–
CCC(=O)N1CCc2cc(Br)cc(S(=O)(=O)CCC(=O)NCc3ccc(F)cc3)c21,inactive: 7.67%,–
CCc1ccc(N(C)S(=O)(=O)c2ccc3[nH]cc(C(=O)NCC4CCCO4)c(=O)c3c2)cc1 (centres undefined),–,"inconclusive: 39.8 µM [activator, single point]"

SMILES,"max response, negative = inhibition",Potency
CCC12CN3CC(CC)(CN(C1)C3c1cc(Br)ccc1OC)C2=O (centres undefined),inactive: -0.256%,–
C[C@@H]1CC[C@]2(C(=O)O)CC[C@]3(C)C(=CCC4[C@@]5(C)C[C@@H](O)[C@H](O)[C@@](C)(CO)C5[C@H](O)C[C@]43C)C2[C@H]1C (some centres undefined),–,"inconclusive: 22.4 µM [activator, partial curve]"
O=C(Nc1c(C(=O)N2CCN(c3ccccc3F)CC2)oc2ccccc12)c1ccccc1F,–,active: 20 µM
Cc1csc2nc(COC(=O)CNC(=O)c3ccccc3Cl)cc(=O)n12,–,active: 20 µM
O=[N+]([O-])c1ccc(C(=S)N2CCC(Cc3ccccc3)CC2)cc1,–,"inconclusive: 39.8 µM [inhibitor, single point]"
COc1ccc(CN(Cc2ccco2)c2cnc(S(C)(=O)=O)nc2C(=O)Nc2ccc(C)cc2C)cc1,–,"inconclusive: 5.01 µM [activator, single point]"
COc1ccc(CCN2C(=O)C3C4C=CC(C3C2=O)C2C(=O)N(CCc3ccc(OC)c(OC)c3)C(=O)C42)cc1OC (centres undefined),–,"inconclusive: 10 µM [activator, partial curve]"
Cc1sc(NC(=O)Cc2ccc3c(c2)OCO3)nc1-c1ccc2c(c1)CCN2C(=O)c1ccc(F)cc1,–,active: 6.31 µM
CCOCCCNC(=O)C(=O)Nc1c2c(nn1-c1ccc(OC)cc1)CSC2,–,"inconclusive: 39.8 µM [activator, single point]"
CCn1cc2nc(SCc3cc(C)ccc3C)n(Cc3ccc(OC)cc3)c(=O)c2n1,–,"inconclusive: 3.16 µM [activator, single point]"
Cn1ncc(N=Cc2ccccc2)c1C(=O)Nc1cccc(Cl)c1,–,"inconclusive: 39.8 µM [activator, single point]"
Cc1nc2cc(-c3ccccc3)nn2c(C)c1CCC(=O)NC(C)c1ccc2c(c1)OCCO2 (centres undefined),–,"inconclusive: 39.8 µM [activator, single point]"
Cc1cccc(OCCCn2c(CCNC(=O)C(C)(C)C)nc3ccccc32)c1,–,"inconclusive: 25.1 µM [activator, partial curve]"
CCCCCCCCCCCNC(=O)c1ccoc1C,–,"inconclusive: 39.8 µM [activator, single point]"
Cc1ccc(C)c(CN2C(=O)c3ccccc3S(=O)(=O)c3ccc(C(=O)NCc4ccccc4)cc32)c1,–,"inconclusive: 31.6 µM [inhibitor, single point]"
FC(F)(F)c1cccc(NC(=S)N2CCN(c3ccccc3)CC2)c1,–,"inconclusive: 31.6 µM [inhibitor, single point]"
CC(C)CCC(C)N=Cc1c(O)n(Cc2ccccc2)c(=O)c2ccccc12 (centres undefined),–,"inconclusive: 31.6 µM [inhibitor, partial curve]"
COc1ccc(Br)cc1CNC(=O)c1ccc2c(c1)N(Cc1ccc(C)cc1)CCS2,–,active: 10 µM
O=C(c1ccc(C(F)(F)F)cc1)N1CCC(=O)N(C(COCc2ccc(C(F)(F)F)cc2)Cc2ccccc2)CC1 (centres undefined),–,"inconclusive: 20 µM [activator, partial curve]"
COC(=O)c1ccc(-c2ccco2)n1Cc1nc(-c2ccc(OC)c(OC)c2)oc1C,–,"inconclusive: 31.6 µM [activator, partial curve]"
